From paper PMC11861906, “Structural basis for lipid-mediated activation of G protein-coupled receptor GPR55” (Nature Communications, 2025) come the findings set out here.

This assay deals with mock-transfected HEK293H cells (empty pcDNA3.1(+), Gα13-Rluc8, wt Gβ3, Gγ9-GFP). In words: BRET² G protein dissociation assay, mock-transfection plus G13-biosensor. It counts as cell-based, human. As to conditions: for BRET2 response, Mean (plotted, Fig. S4): mock-G13. As to the method: G protein dissociation assays were performed according to the original protocols of the TRUPATH BRET² assay[47],[87] but with subtle modifications as previously described[61],[88],[89]. All reagents and cells were obtained from Thermo Fisher Scientific unless indicated otherwise. The coding sequences for the G protein biosensors[47] (Gα12-Rluc8, Gα13-Rluc8, wt Gβ3, and Gγ9-GFP), the wt GPR55, the construct used for cryo-EM (with GFP bearing a G67A mutation to disrupt fluorescence properties[48] for BRET² assays), GPR55 binding pocket mutants (G152^4.56F, G152^4.56W, N171^ECL2Q, N171^ECL2A, T176^5.33A, R253^6.62A), and the wt TBXA2R were codon-optimized for Homo sapiens, gene-synthesized, and sub-cloned into pcDNA^TM3.1(+) between NheI and HindIII restriction sites by GeneArt (Thermo Fisher Scientific). […] Freshly grown cells were washed with Dulbecco’s Balanced Salt Solution (DPBS, cat. #14200075) and detached using trypsin-ethylenediaminetetraacetic acid (trypsin-EDTA) (cat. #25300-062). Then, the cells were reconstituted to 500,000 cells per mL with fresh medium, and 1,000,000 cells were seeded into each well of a 6-well plate. After 3 h incubation at 37 °C and 5% CO2, adherent cells were transfected with 600 ng DNA (1:1:1:1 ratio of plasmid DNA for GPR55, wt Gβ3, Gγ9-GFP, and Gα12-Rluc8 or Gα13-Rluc8). Plasmid DNA was mixed with 1.5 µL Lipofectamine^TM 2000 (cat. #11668027) in Opti-MEM^TM medium (cat. #31985062) and incubated for 20 min. Then, the mixture was added to each well of the 6-well plate following 24 h incubation at 37 °C and 5% CO2. Transfected cells were washed with DPBS, detached using EDTA (Versene, cat. #15040066), and reconstituted into fresh medium at 500,000 cells mL^−1. From this suspension, 50,000 cells were seeded into each well of a white-bottom 96-well plate (Nunc^TM MicroWell^TM 96 wells, cat. #136101) following overnight incubation at 37 °C and 5% CO2. Then, the adherent cells were washed with assay medium [Hank’s balanced salt solution (HBSS, cat. #14065056) plus 20 mM HEPES pH 7.4 (cat. #15630056)] and finally reconstituted into 50 µL of the same medium. […] Methoxy e-Coelenterazine was used as luciferase substrate (Prolume Purple, NanoLight Technology, cat. #369), reconstituted at 1 mM in methanol and diluted to 37.5 µM with assay buffer (7.5 µM final assay concentration). The assay was started by the addition of 20 µL luciferase substrate to each well of the assay plate using a Multidrop^TM Combi reagent dispenser (Thermo Fisher Scientific), followed by 5 min incubation at room temperature. Then, 30 µL of agonist dilutions or DMSO control was added (final DMSO concentration 1.5%), followed by an additional 5 min incubation at room temperature. BRET² measurements were performed with a PHERAstar® FSX microplate reader (BMG LABTECH) using a BRET² filter (donor emission 370–450 nm, acceptor emission 500–530 nm) at the maximum fluorescence gain of 3600. BRET² ratios were calculated by dividing GFP emission signals from Rluc8 emission counts. Buffer-DMSO controls were subtracted from each data point to calculate ΔBRET² ratios. The half-maximal effective concentration (potency, EC50) and maximal effect (efficacy, Emax) were determined by sigmoidal dose-response curve fit with variable slope.

Molecules are shown by their SMILES. Values joined by “and” are separate entries in the source; they are usually repeats but may differ in a detail not shown here. Equal values may be shown once.

Consider `Cc1cccc(N2CCN(C(=O)c3cc(S(=O)(=O)N(C)C)ccc3N3CCCC3)CC2)c1C` [ML184, 3-[[4-(2,3-dimethylphenyl)-1-piperazinyl]carbonyl]-N,N-dimethyl-4-(1-pyrrolidinyl)benzenesulfonamide], for which the “BRET2 response, Mean (plotted, Fig. S4)” value is 0.01533 (concentration 300 pM); 0.003425 (concentration 1e-9 M); 0.005562 (concentration 3e-9 M); 0.0053 (concentration 1e-8 M); 0.009475 (concentration 3e-8 M); 0.01556 (concentration 1e-7 M). Further, the “BRET2 response, Mean (plotted, Fig. S4)” value (concentration 3e-7 M) was 0.009975; the “BRET2 response, Mean (plotted, Fig. S4)” value (concentration 1e-6 M) is 0.01634; the “BRET2 response, Mean (plotted, Fig. S4)” value (concentration 3e-6 M) turned out to be 0.01818; the “BRET2 response, Mean (plotted, Fig. S4)” value (concentration 1e-5 M) is 0.01609; the “BRET2 response, Mean (plotted, Fig. S4)” value (concentration 3e-5 M) was determined as 0.02086. The “Efficacy (%)” value (mock-transfection plus G13-biosensor, 30 µM ligand) was -9.73% and -15.78%.
